The record followed here is US20230193292A1 (CHIA TAI TIANQING PHARMACEUTICAL GROUP, published 2023).

One test has as its target T1, Human BAFFR protein (human, UniProt Q96RJ3 7-71, limits assumed).
T1 sequence (looked up): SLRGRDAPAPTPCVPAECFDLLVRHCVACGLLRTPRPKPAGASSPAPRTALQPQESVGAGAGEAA
Nature of the test: SPR (Biacore T200), antibody captured by anti-hIgG (Fc), BAFFR as analyte. In general terms: Surface plasmon resonance follows binding to a sensor surface in real time, without labels.

The target in the next test is T2, Human TACI protein (human, UniProt O14836 1-165, limits assumed).
T2 sequence (looked up): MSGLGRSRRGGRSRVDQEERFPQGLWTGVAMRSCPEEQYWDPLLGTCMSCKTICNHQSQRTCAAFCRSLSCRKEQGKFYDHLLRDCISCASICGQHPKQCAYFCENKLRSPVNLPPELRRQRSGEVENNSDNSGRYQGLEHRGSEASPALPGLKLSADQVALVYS
Briefly: SPR (Biacore T200), antibody captured by anti-hIgG (Fc), TACI as analyte.

In test [1] the target is T3, human BCMA-His protein (ACRO, product catalog No. BCA-H522y) (human, UniProt Q02223 1-54, biotin-conjugated in the assays of Example 5 and 6.1 (sites not given)).
T3 construct: Bought protein; The biotin-conjugated form of the same product is written under this molecule; also called recombinant BCMA-His protein; biotin-conjugated recombinant BCMA-His protein; not shown: His tag
T3 sequence (looked up): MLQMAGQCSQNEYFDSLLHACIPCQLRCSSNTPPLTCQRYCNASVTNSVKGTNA
Briefly: competitive ELISA: antibody pre-mixed with biotin-BCMA-His, binding to coated APRIL.

Test [2] concerns the target T3, human BCMA-His protein (ACRO, product …). Briefly: SPR (Biacore T200), antibody captured by anti-hIgG (Fc), BCMA-His as analyte, 1:1 model.
Test [3] has as its target T4, human BCMA on cells (CHO-hBCMA, U266, RPMI8226) (human, UniProt Q02223 1-184).
T4 construct: whole, on cells; also called BCMA protein on cell membranes
T4 sequence (looked up): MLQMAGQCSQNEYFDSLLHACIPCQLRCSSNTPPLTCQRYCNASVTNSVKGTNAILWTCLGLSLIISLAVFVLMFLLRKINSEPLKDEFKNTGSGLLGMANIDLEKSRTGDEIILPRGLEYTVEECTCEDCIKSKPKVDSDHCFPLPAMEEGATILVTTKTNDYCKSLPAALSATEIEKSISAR
Briefly: flow cytometry on U266 cells.

The target in test [4] is T4, human BCMA on cells (CHO-hBCMA, U266, …). Nature of the test: flow cytometry on CHO-hBCMA cells.
For test [5], the target named is T3, human BCMA-His protein (ACRO, product …). Briefly: indirect ELISA, 2 µg/mL BCMA-His coated.

B1: 1B5-Fc (Fc fusion)
chain: QVQLVESGGGSVQAGGSLRLSCAASGVTFNSDCMGWFRQAPGKEREAVARIETGYGGTLYADSVKGRFTISRDNAKKTVYLQMNSLKFEDTAMYYCAAKRSWCSPTWWREVDYNYWGQGTLVTVSS[no letters for human IgG1 Fc]
notes: also called anti-human BCMA VHH-Fc chimeric antibody 1B5-Fc
Take B1: the binding result with Human BAFFR protein and with Human TACI protein was “no binding (tested: 100 nM)” in each case. This molecule also displayed an IC50 in test [1] of 0.38 nM. This molecule returned a Kd in test [2] of 0.496 nM. This molecule also had a koff in test [2] of 0.000572 s⁻¹. Moreover, the kon in test [2] was found to be 1.15e+06 M⁻¹ s⁻¹. Also, the values for the EC50 in test [3], in test [4] and in test [5] were 2.58 nM, 1.91 nM and 0.21 nM, respectively.

B2: 1B11-Fc (Fc fusion)
chain: QVQLVESGGGSVPAGGSMRLSCAASGYRNPMVCMGWFRQAPGKKREGVALITTDGGTTLYADSVKGRFTISQDNAKNTVYLQMNNLKPEDTAMYTCAADDRPWCMTVGVRTEDYDTWGQGTLVTVSS[no letters for human IgG1 Fc]
notes: also called anti-human BCMA VHH-Fc chimeric antibody 1B11-Fc
Consider B2, for which the binding result with Human BAFFR protein and with Human TACI protein was “no binding (tested: 100 nM)” each time. In addition, the values for the half-maximal effective concentration (EC50) in test [3] and in test [4] were 3.82 nM and 3.39 nM, respectively.

B3: 1A5-Fc (Fc fusion)
chain: QVQLVESGGGSVQAGGSLLLSCAASGYTFSPCAMGWFRQAPGKERSLVSWITVDGTTDYADSVKGRFTISRDNAKNMVYLQMTSLEPEDTATYYCNTVYILTPSCRPQPWGPGTQVTVSS[no letters for human IgG1 Fc]
notes: Expressed in CHO cells, purified on protein A; also called anti-human BCMA VHH-Fc chimeric antibody 1A5-Fc
B3: the binding result with Human BAFFR protein and in the test with Human TACI protein was “no binding (tested: 100 nM)” each time. In test [1], this molecule yielded an IC50 of 0.21 nM. In test [2], the Kd was 0.121 nM. In test [2], this molecule returned a koff of 0.000432 s⁻¹. Also, the kon in test [2] was 3.57e+06 M⁻¹ s⁻¹. Further, the concentration giving a half-maximal response (EC50) was 3.86 nM in test [3], 1.76 nM in test [4] and 0.22 nM in test [5].

A word on the IC50: it is the concentration that inhibits the measured activity by half. By Kd is commonly meant the equilibrium constant for the complex coming apart. Higher therefore signals lower affinity. One may read the koff as a measure of how fast the partners let go of each other. A high value points to a short-lived complex. The term kon denotes the rate constant with which the complex forms. The low end stands for slow association, the high end for fast association. What is called EC50 is the concentration giving half of the maximal effect.
